Whole data set: some 4,100 sequences, median “arbitrary fluorescence units” near 780, cut for the highest 2% near 22,000. Some of the results follow.

The values that follow come from the supplement of paper PMC10681739.

For this experiment, the target named is T1, ETS1 (UniProt P14921).
T1 sequence: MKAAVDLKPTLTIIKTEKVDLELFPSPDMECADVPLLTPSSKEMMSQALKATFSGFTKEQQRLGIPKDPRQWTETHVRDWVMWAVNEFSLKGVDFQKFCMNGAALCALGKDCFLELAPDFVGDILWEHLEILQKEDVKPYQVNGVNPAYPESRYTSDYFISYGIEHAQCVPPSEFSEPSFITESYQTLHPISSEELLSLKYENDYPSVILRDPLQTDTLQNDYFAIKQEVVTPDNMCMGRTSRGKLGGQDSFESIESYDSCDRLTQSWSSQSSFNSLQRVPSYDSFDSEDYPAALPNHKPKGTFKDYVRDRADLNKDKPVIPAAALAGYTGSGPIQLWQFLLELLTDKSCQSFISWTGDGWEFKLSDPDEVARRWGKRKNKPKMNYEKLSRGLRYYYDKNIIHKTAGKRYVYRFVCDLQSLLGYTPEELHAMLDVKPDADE
Description: ETS1 binding intensity (PBM fluorescence), ETS1 alone (arbitrary fluorescence units); higher = stronger binding. The note with it: ETS1 concentration 1 nM; RUNX1 concentration 0 nM. The method, boiled down:
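Recombinant full-length human ETS1 was applied at 1 nM, without RUNX1, to double-stranded Agilent 4 × 180k arrays of 36-bp genomic probes carrying a mutated RUNX1 partner site, following standard PBM protocols. Detection used an anti-ETS1 antibody (Cell Signaling Technology 14069) and an Alexa488-conjugated secondary antibody, with scanning on a GenePix 4400A. Each sequence was printed as four replicate spots. Binding level is the spot fluorescence intensity, summarised across replicates and not normalised.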
For the sequence GCTGACCCGGAAGCGCTCGTGTCCACCATCTCCGAC, the ETS1 binding intensity was determined as 3790.
Next, ACCTTGTAGCCTATTCTAACCCCAGCCCGGAAACCA: 580.
Sequence GTCCTCTTCGGTGGCGCCAGCTTCCTTTCAATTCCA returned an ETS1 binding intensity of 673.
The result for TGGGTGCCGGATTCGGTGAGTGAGGTTCTCATGATG reads 538; that for TGCGTCCATTCCGGGCTTCTGGCCGTAAGGCGCCAG, 368; that for AGCCGCGCCGAATCCGCTCAGTGCATCCGGGGCCCC, 1250.
The result for GCTCCTCACTGCGCTCACAGCCACATCCTGCAGAGC reads 957; that for TCCCGGCGTTCTTCCGCTGGCTCAGCCGCGAGTACC, 2930.
Next, ATGCAGAAGCTACAGGAAGAAGCCGCTGGCCAAGCT: 668.
As to GGGCGGAAGGGGTTCGCACGCCAAGAACTGCCATGC, the ETS1 binding intensity is 434.
As for CTGACAGTTACTTCCTGTCTTTGTGAGCGATTGTGA, the ETS1 binding intensity is 19200.
Next, CGTTTCCTGTGGCTGCAGCTCTCCCCACGCACACAC: 23800; GGCGGAAGCTGCCGCTGCCTTGCGCCCCCTCACACG: 1100.
The result for TAAACCCTGGAGCACAGACAGGAAGGAACTTGCTCA reads 650.
Next, GAACCCGGCGATCACGGGAATATCCGTCGCGCCGAG: 687; CGGTAGGCGGCTATCCTCCAAGCTGGCAGGAAGCGC: 413.
Sequence GCGGCGCTGCAGGCCGAGGTGGGGCCGGAAATGTCA showed an ETS1 binding intensity of 804.
For the sequence ACCCCAAACTCACAAACCCACCGGAAGGAACCAACT, the ETS1 binding intensity was 1470.
AAGTGAGCCATGTGCGTACGTGCGGAAGAATATTCA came in with an ETS1 binding intensity of 413.
Take GATGTTGTCTCGGCTGGAGCCTGCAGGAAACCTCGT: the ETS1 binding intensity came to 383.
Next, CGATATAACTACCCCTAAGCTAAACTACATCCTGGT: 572.
The sequence GCAGGCTCGAGCGGCCAAAGCTCTTTCCGGGGGCCC had an ETS1 binding intensity of 424.
The result for GTTTTCAAGGCAGGAAGTGGCTGTAGTGGCACGGAG reads 7460.
Regarding GCGGGGCGCAGGAAGCGGGGCGAAAGCACTGTTGGC, the ETS1 binding intensity was found to be 1660.
GGGTTGGTAGTTATCAGCGGGGGGAAGTAGGAGGTG: the ETS1 binding intensity was found to be 1110.
As to TTCTGCAAGAAATCCAACATAATTTCCTGTCTCTAC, the ETS1 binding intensity amounted to 2490.
Next, CAAAACACCTGTGATTTTGCAAAAGGATGTGATTTC: 393.
The result for GGCACCCCCGAATTTCTTCGAAGAGGAAATAAATAC reads 456; that for TGACTCACCTTCCTGTAGGTTGGATTTCTGCATATC, 1490.
TGGCCAGGAAGCCACTCGATTGCCGGCGCCCTCAGC showed an ETS1 binding intensity of 566.
The sequence ACAGAGAGGGAAGTCGCCAGTGTTGTCAGCGGGCGT displayed an ETS1 binding intensity of 494.
With AGCGGGAGGAAGTGCTGCAGTAGGCACAGCAGCCTG, the ETS1 binding intensity came out at 2010.
The result for CACCCCGCCTCTGAGGGACCACTTCCGGCGCCTTCT reads 9910.
The result for AACTGGATTGAGCACATGGAGGAAATGGGAGGAGGC reads 556.
In turn, TTTCCTGAGCTTAAACACAACTATGTGTTTCCTGAC showed an ETS1 binding intensity of 432.
For the sequence GGACTGCGTTTCCGGACACTGAGGGTGCCGGTAGCC, the ETS1 binding intensity is 12100.
Next, TGATAGTGGATTTGGGGTGATGCAAACAGGAAGAAA: 555; CTGCAGTCACCTACAGCTCACTTCCGCTCTCCACTT: 5270; GCCGCGAGTTCCGCCGGGTGGACCCCAAATCCCGAG: 1130.
The result for CTCCGCAGGATGACTCAGGGCAGCCCTGACAACAGT reads 318.
On to GAAGAGTTGAGGGATGAGGGCTCGCGGAAGATAAAA, for which the ETS1 binding intensity came to 430.
TCCAGGATGTGCTGAACCTCCAGAATCCACCGGCTT registered an ETS1 binding intensity of 678.
AGCTTGGCCAGCGGCTTCTTCCTGTAGCTTCTGCAT came in with an ETS1 binding intensity of 1010.
Next, CCCCACATCCGGGGGCCGGGGCCGGGCTGAGGGCTT: 13100.
Next, ACCGGATGCCGGGGCACCGCCAGATGTTGCCACGAG: 1960; TGCGAGGAAGCGCGGCCACGTGACTGCTGCAGGCCA: 392; ACTTAGTGAAGTTTCCTTCACTTGGTCTTGCTCTTC: 474.
Next, TGCGCCGAAAACGCTTCCTCCTCCGCGAGTGGCTGA: 830.
AAACAGCGGCGCGAAAGTCTCTCGGAAATGACGCAA returned an ETS1 binding intensity of 335.
In turn, AGCACAGCCCTCAGCCATGGGTTCAGCCGGAAGCCC showed an ETS1 binding intensity of 439.
The result for GCGGGCGTGCAGGCGGCAGATGAGGAAACAGACTAG reads 389.
On to ACCGCCGGAAGTTTCTGCCGCGGCTTTTCGGGGACG, for which the ETS1 binding intensity is 6040.
Take GTTTTGGGGCCTAAAGAAACATATGGTCAGGATGAT: the ETS1 binding intensity is 444.
GCCTGCGCTCTTTCCGGTAGCCAGAGCCTCGTCTAA gave an ETS1 binding intensity of 8280.
Sequence AGCACCCCATTCTACACCTCCAGCTCATCCTGCGTC registered an ETS1 binding intensity of 389.
The sequence CAGGTGTCCGTGGCTGGGAGGAAACCCAGAGTCAGG displayed an ETS1 binding intensity of 377.
For the sequence ATTTCCATTTCCGGACTCTTCTCCTGCCCTCAGGGC, the ETS1 binding intensity amounted to 17600.
Next, AAAAACTACATTTCCCATGAGCACCCTCAGGCGTGC: 551; GGCTTGGGGTTTGGTGATTGTACTTCCTTATTGATA: 738.
Sequence AGATGCAAACACAGGAAACTTGTGGACTATGCTGCT returned an ETS1 binding intensity of 842.
On to GCGGAATTGGGGCGGGAGGGGGAGGAGGAAGTCAGG, for which the ETS1 binding intensity worked out at 1730.
Regarding TCAGTCTTGGGGTTAAGGGAGGAAGGGTACTGTTGG, the ETS1 binding intensity amounted to 400.
The result for GAGGAGGTGGCTGCTATAACCCCAAGGGGGAAACGC reads 436.
